Measured values reported in the RNAGym collection of RNA variant scans (doi:10.7554/elife.90254).
The source gives no read counts; variants with many changes may rest on few reads.

B1: LINE1-full (parent)
chain: UACGUAGGUGGUUUUCCCCUGAUAGUGCUAAGGGGGCCUGGAAGUUUGGACUGGGCAGAGCUCAACACAGCGUGGCAAAGUGGCUGUGGCUAGACUGCCUCUCUGGAUUCCUCGUCACUCAGCAGGGCAUCUCUGAGAGAAAUGCC

Variants of: B1
Test: self-cleavage, relative activity (ratio to wild type); higher = more cleavage; in vitro, sequencing; the parent is a self-cleaving ribozyme

Row | Variant | self-cleavage
1 | UACAUAGGUGGUUUUCCCCUGAUAGUGCUAAGGGGGCCUGGAAGUUUGGACUGGGCAGAGCUCAACACAGCGUGGCAAAGUAGCUGUGGCUAGACUGCCUCUCUGGAUUCCUCGUCGCUCAGCGGCGCAUCUCCGAGAGAAAUGCC [G4A G82A A117G A124G G126C U134C] | 1.84
2 | UACAUAGGCGGUUUUCCCCUGAUAGUGCUAAGGGGGCCUGGAAGUUUGGACUGGGCAGAGCUCAACACAGCGUGGCAAAGUGGCUGUGGCUAGGCUGCCUCUCUGGAUUCCUCGUCACUCAGCAGGGCAUCUCUGAGAGAAAUGCC [G4A U9C A94G] | 0.34
3 | UACUCAGGUGGUUUUCCCCUGAUAGUGCUAAGGGGGCCUGGAAGUUUGGACUGGGCAGAGCUCAACACAGCGUGGCAAAGUGGCUGUGGCUAGUCUGCCUCUCUGGAUUCCUCGUCACUCAGCAAGGCAUCUCUGAGAGAAAUGCC [G4U U5C A94U G125A] | 0.46
4 | UACUCAGGUGGUUUUCCCCUGAUGGUGCUAAGGGGGCCUGGAAGUUUGGACUGGGCAGAGCUCAACACAGCGUGGCAAAGUGGCUGUGGCUAGACCGCCUCUCUGGAUUCCUCGUCACUCAGCAGGGCAUCUCUGAGAGAAAUGCC [G4U U5C A24G U96C] | 0.95
5 | UACUUAGGUGGUUCUCCCCUGAUAGUGCUAAGGGGGCCUGGAAGUUCGGACUGGGCAGAGCUCAACACAGCGUGGCAAAGUGGCUGUGUCUAGACUGCCUCUCUGGAUUCCUCGUCACUCAGCAGGGCAUCUCUGAGAGAAGUGCC [G4U U14C U47C G89U A142G] | 0.05
6 | UACCUAGGUGGUUUUCCCCUGACAGUGCUAAGGGGGCCUGGAAGUUUGGACUGGGCAGAGCCCAACACAGCGUGGCAAAGUGGCUGUGGCUAGACUGCCUCUCUGGAUUCCUCGUCACUCAGCAGGGCAUCUCUGAGAGAAAUGCC [G4C U23C U62C] | 0.17
7 | UACCUAGGUGGUUUUCCCCUGAUAGUGCUAAGGGGGCCUGGGAGUUUGGACUGGGCAGAGCUCAACACAGCGUGGCAAAGUGGCUGCGGCUAGACUGCCUCUCUGGAUUCCUCGUCACUCAGCAGGGCAUCUCUGAGAGAAAUGCC [G4C A42G U87C] | 0
8 | UACCUAGGUGGUUUUCCCCUGAUAGUGCUAAGGGGGCCUGGAAGUUUGGACUGGGCUGAGCUCAACACAGCGUGGCAAAGUGGCUGUGGCUAGACCGCCUCUCUGGGUUCCCCGUCACUCAGCAGGGCAUCUCUGAGAGAAAUGCC [G4C A57U U96C A107G U112C] | 0
9 | UACAUAGGUGGUUUUCCCCUGAUAGUGCUAAGGGGGCCUGGAAGUUUGGACUGGGCAGAGCUCAACACAGCGUGGCAAAGCGGCUGUGGCUAGACCGCCUCUCUGGAUUCCUCGUCACUCAGCAGGGCAUCUCUGAGAGAAAUGCC [G4A U81C U96C] | 0
10 | UACUUAGGUGGUCUUCCCCUGAUAGUGCUAAGGGAGCCUGGAAGUUUGGACUGGGCAGAGCUCAACACAGCGUGGCAAAGUGGCUGUGGCUAGACUGCCUCUCUGGAUUCCUCGUCACUCAGCAGGGCAUCUCUGAGAGAAAUGCC [G4U U13C G35A] | 1.45
11 | UACUUAGGUGGUUUUCCCCUGAUAGUGCUAAGGGGGCCUGGAAGCUUGGGCUGGGCAGAGCUCAACACAGCGUGGCAAGGUGGCUGUGGCUAGACUGCCUCUCUGGAUUCCUCGUCACUCAGCAGGGCAUCUCUGAGGGAAAUGCC [G4U U45C A50G A79G A138G] | 2.63
12 | UACAUAGGUGGUUUUCCCCUGAUAGUGCUAAGGGGGCCUGGAAGUUUGGACUGGGCAGAGCUCAACACAGCGUGGCAAAGUGGCCGUGGCUAGACUGCCUCUCUGGAUCCCUCGUCACUCAGCAGAGCAUCUCUGAGAGAAAUGCC [G4A U85C U109C G126A] | 0.17
13 | UACAUAGGUGGUUUUCCCCUGAUAGUGCUAAGGGGGCCUGGAAGUUUGGACUGGGCAGAGCUCAACACAGCGUGGCAAAGUGGCUGUGGCUAGACUGCCUCAAUGGAUUCCUCGUCACUCAGCAGGGCAUCUCUGAGAGAAAUGCC [G4A U102A C103A] | 1.78
14 | UACAUAGGUGGUUUUCCCCUGAUAGAGCUAAGGGGGCCUGGAAGUUUGGACUGGGCAGAGCUCAACACAGCGUGGCAAAGUGGCUGUGGCUAGACUGCCUCUCUGGAUUCCUCGUCACUCAGCAGGGCAUCUCCGAGAGAAAUGCC [G4A U26A U134C] | 1.35
15 | UACAUAGGUGGUUUUCCCCUGAUAGUGCUAAGGGGGCCUGGAAGUUUGGACGGGGCAGAGCUCAACACGGCGUGGCAAAGUGGCUGUGGCUAGACUGCCUCUCUGGACUCCUCGUCACUCAGCAGGGCAUCUCUGAGAGAAACGCC [G4A U52G A69G U108C U143C] | 0
16 | UACUUAGGUGGUUUUCCCCUGAUGGUGCUAAGGGGGCCUGGAAGUUUGGACUGGGCAGAGCUCAACGCAGCGUGGCAAAGUGGCUGUGGCUAGACUGCCUCUCUGGAUUCCUCGUCACUCAGCAGGGCAUCUCUGAGAGAAAUGCC [G4U A24G A67G] | 0.52
17 | UACAUAGGUGGGUUUCCCCUGAUAGUGCUAAGGGGGCCUGGAAAUUUGGACUGGGCAGAGCUCAACACGGCGCGGCAAAGUGGCUGAGGCUAGACUGCCUCUCUGGAUUCCUCGUCACUCAGCGGGGCAUCUCUGAGAGAAAUGCC [G4A U12G G44A A69G U73C U87A A124G] | 0
18 | UACAUAGGUGGUUUUCCCCUGAAAGUGCUAAGGGGGCCUGGAAGUUUGGACUGGGCAGAGCUCAACACAGCGUGGCAAAGUGGUUGUGGCUAGACUGCCUCUCUGGAUUCCUCGUCACUCAGCAGGGCACCUCUGAGAGAAAUGCC [G4A U23A C84U U130C] | 0.23
19 | UACAUAGGUGGUUUUCCCCUGAUAGUGCUAAGGGGGCCUGGAAGUUUGGACUGGGCAGAGCUCAACACACCGUGGCAAAGUGGCUGUGGCUAGACUGCCUCUCUGGAUUCCUCGUCACUCAGCAGGGCAGCUCUGAGAGAAAUGCC [G4A G70C U130G] | 0.14
20 | UACGAGGGUGGUUUUCCCCUGAUAGUGCUAAGGGGGCCUGGAAGUUUGGACUGGGCAGAGCUCAACACAGCGUGGCAAAGUGGCUGUGGCUAGACUGCCACUCUGGAUUCCUCGUCACUCAGCAGGGCAUCUCUGAGAGAAAUGCC [U5A A6G U100A] | 1.27

Row | Variant | self-cleavage
21 | UACCUAGGUGGUUUUCCCCUGAUAGUGCUAAGGAGGCCUGGAAGUUUGGACUGGGCAGAGCUCAACACAGCGUGGCAAAGUGGCUGUGGCUAGACUGCCUCUCUGGAUUCCUCGUCACUCAGCAGGGCAUCUCUGAGAGAAGUGCC [G4C G34A A142G] | 1.25
22 | UACAUAGGUGGUCUUCCCCCGAUAGUGCUAAGGGGGCCUGGAAGUUUGGACUGGGCAGAGCUCAACACAGCGUGGCAAAGUGGCUGUGGCUAGACUGCCUCUCUGGAUUCCUCGUCACUCAGCAGGGCGUCUCUGAGAGAAAUGCC [G4A U13C U20C A129G] | 1.13
23 | UACAUAGGAGGUUUUCCCCUGAUAGUGCUAAGGGGGCCUGGAAGUUUGGACUGGGCAGAGCUCAACACAGCGUGGCAAAGUGGCUGUGGCUAUACUGCCUCUCUGGAUUCCUCGUCACUCAGCAGGGCAUCUCUGAGAGAAAUGCC [G4A U9A G93U] | 0.05
24 | UACUUAGGUGGUAUUCCCCUGACAGUGCUAAGGGGGCCUGGAAGUUUGGACUGGGCAGAGCUCAACACAGCGUGGCAAAGUGGCUGUGGCUGGACUGCCUCUCUGGAUUCCUCGUCACUCUGCAGGGCAUCUCUGAGAGAAAUGCC [G4U U13A U23C A92G A121U] | 0.24
25 | UACAUAGGUGGUUCUCCCCUGAUAGUGCUAAGGGGGCCUGGAAGUUUGGACUGGGCAGAGCUCAACACAGCGUGGCAAUGUGGCUGUGGCUAGACUGCCUCUCUGGAUUCCUCGUCACUCAGCAGGGCAUCUCUGAGAGAAAUGCC [G4A U14C A79U] | 0.66
26 | UACAUAGGUGGUAUCCCCCUGAUAGUGCUAAGGGGGCCUGGAAGUUUGGACUGGGCAGGGCUCUACACAGCGUGGCAAAGUGGCUGUGGCUAGACUGCCUCUCUGGAUUCCUCGUCACUCAGCAGGGCAUCUCUGAGAGAAAUGCC [G4A U13A U15C A59G A64U] | 0.27
27 | UACAUAGGUGGUUUUCCCCUGACGGUGCUAAGGGGGCCUGGAAGUUUGGACUGGGCAGAGCUCAACACAGCGUGGCAAAGUGGCUGUGGCUAGACUGCCUCUCUGGAUUCCUCGUCACUCAGCAGGGCAUCUCCGAGAGAAAUGCC [G4A U23C A24G U134C] | 1.12
28 | UACAUAGGUGGUUUUCCCCUGAUAGUGCUAAGGGGGCCUGGAAGUUUGGACUGGGCAGAGCUCAACACAGCGUGGCAAAGUGGCUGUGGCUAGACUGCCUCUCUGGAUUCCACGUCACUCAGCAGGGCACCUCUGAGAGGAAUGCC [G4A U112A U130C A140G] | 1.62
29 | UACUUAGGUGGUUUUCCCCCGAUAGUGCUAAGGGGGCCUGGAAGUUUGGACUGGGCAGAGCUCGGCACAGCGUGGCUAAGUGGCUGUGGCUAGACUGCCUCUCUGGAUUCCUCGUCACUCAGCAGGGCAACUCUGAGAGAAAUGCC [G4U U20C A64G A65G A77U U130A] | 0.11
30 | UACUUAGGUGGUUUUCCCCUGAUAGUGCUAAGGGGGCCUGGAAGUUUGGACUGGGCAGAGCUCAACACAGCGUGGCAAAGUGGCUGUGGCUAGACUGCCACUCUGGAUUCCUCGUCACUCAGCAGGGCAUCUCUGAGAGAAAUCCC [G4U U100A G144C] | 0.73
31 | UACCUAGGUGGUUUUCCCCUGAUAGUGCUAAGGGGGCCUGGAAGUUUGGACUGGGCAGAGCACAACACAGCGUGGCAAAGUGGCUGUGGCUAGACUGCCUCUCUGGAUUCCUCGUCACUCAGCAGGGCAUCUCUGAGAGAGAUGCC [G4C U62A A141G] | 0.14
32 | UACAUAGGAGGUUUUCCCCUGAUAGUGCUAAGGGGGCCUGGAAGUUUGGACUGGGCAGAGCUCAACACAGCGUGGUAAAGUGGCUGUGGCUAGACUGCCUCUCUGGAUUCCUCGUCACUCAGCAGGGCAUCUCUGAGAGAAAUGCC [G4A U9A C76U] | 1.3
33 | UACUUAGGUGGUUUUCCCCUGACAGUGCUAAGGGGGCCUGGAAGUUUGGACUGGGCAGAGCUCAACACAGCGUGGCAAAGUGGCUGUGGCUAGACUGCCUCUCUGGAUUCCUCGUCUCUCAGCAGGGCAUCUCUGAGAGAAAUGCC [G4U U23C A117U] | 1.61
34 | UACUCAGGUGGUUCUCCCCUGAUAGUGCUAAGGGGGCCUGGAAGUUUGGACUGGGCAGAGCUCAACACAGCGUGGCAAAGAGGCUGUGGCUAGACUGCCUCUCUGGAUUCCUCGUCACUCAGCAGGGCAUCUCUGAGAGAAAUGCC [G4U U5C U14C U81A] | 1.09
35 | UACAUAGGUGGUUUUCCCCUGAUAGUGCUAAGGGGGCCUGGAAGUUUGGACUGGGCAGAGCCCAACACAGCGCGGCAAAGUGGCUGUGGCUAGACUGCCUCUCUGGAUUCCUCGUCACUCAGCAGGGCAUCUCUGAGAGAAAUGCC [G4A U62C U73C] | 0
36 | UACGAGGGUGGUUUUCCCCUGAUAGUGCUAAGGGGGCCUGGAAGUUUGGACUGGGCUGAGCUCAACACAGCGUGGCAAAGUGGCUGUGGCUAGACUGCCUCUCUGGAUUCCUCGUCACUCAGCAGGGCAUCUCUGAGAGAAAUGCC [U5A A6G A57U] | 0.28
37 | UACUUAGGUGGUUUUCCCCUGAUAGUGCUAAGGGGGCCUGGAAGUUUGGACUGGGCUGAGCUCAACACAGCGUGGCAAAGUGGCUGUGGCUAGACUGCCUCUCUGGAUUCCUCGUCUCUCAGCAGGGCACCUCUGAGAGAAAUGCC [G4U A57U A117U U130C] | 0.13
38 | UACCUAGGUGGUUUUCCCCUGAUAGUGCUAAGGGGGCCUGGAAGUUUGGACUGGGCAGAGCUCAACACAGCGUGGCAGAGUGGCCGUGGCUAGACUGCCUCUCUGGAUUCCUCGUCACUCAGCAGGGCAUCUCUGAGAGAAAUGCC [G4C A78G U85C] | 0
39 | UACAUAGGCGGUUCUCCCCUGAUAGUGCUAAGGGGGCCUGGAAGUUUGGACUGGGCAGAGCUCAACACAGCGUGGCAAAGUGGCUUUGGCUAGACUGCCUCUCUGGAUUCCUCGUCACUCAGCAGGGCAUCUCUGAGAGAAAUGCC [G4A U9C U14C G86U] | 0.27
